Some of the results follow.

This assay has as its target T1, OsWOX13 (Oryza sativa, UniProt Q5QMM3 1-267).
T1 sequence: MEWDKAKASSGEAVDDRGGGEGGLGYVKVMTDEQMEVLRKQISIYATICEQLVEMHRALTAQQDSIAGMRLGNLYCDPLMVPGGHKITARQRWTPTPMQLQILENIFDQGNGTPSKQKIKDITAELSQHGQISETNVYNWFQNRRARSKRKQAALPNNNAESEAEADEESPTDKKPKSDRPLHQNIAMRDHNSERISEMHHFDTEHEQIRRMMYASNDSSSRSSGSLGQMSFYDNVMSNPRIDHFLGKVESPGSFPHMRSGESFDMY
The experiment in a line: protein-binding microarray (RPBM); PBS, 2% BSA, 51.3 ng/ul salmon testes DNA, 50 uM zinc acetate, 200 nM TF, 25 C, 1 h; high values mean tight binding. The settings on record: protein: recombinant; tags: N-terminal polyhistidine and DsRed monomer fusion (pET32a); label: CyDye5-dUTP incorporated in the synthesized complementary strand; 3' TTTTT single-stranded linker to array surface; dsDNA, one strand shown. In short, it runs like this:
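Transcription factors were made in E. coli BL21-CodonPlus as N-terminal fusions to a polyhistidine tag and DsRed, then purified on Ni–NTA. After primer extension with Cy5-dUTP and blocking with 2% BSA, a custom Agilent array was exposed for 1 h at 25 °C to 200 nM protein in PBS, 2% BSA, salmon testes DNA and 50 µM zinc acetate. Washed arrays were scanned on an Axon 4000B, and the binding signal is per-feature fluorescence intensity in arbitrary units.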
Take “AAGCAATATAATTGTTTCTCTAATTAGGAGTTATACATGTCGGAGTCACCTAGTGCAG”: the binding signal is 19000 fluorescence intensity (a.u.).

Turning to “ATCAATTGGGCTGATTTTCGGGGATGGATAACATAGAATTCGGAGTCACCTAGTGCAG”, the binding signal was 7450 fluorescence intensity (a.u.).

For the sequence “GTAAGAGCCAAATCATGATGGATTGATGGGGTGCACATGTCGGAGTCACCTAGTGCAG”, the binding signal is 16500 fluorescence intensity (a.u.).

Turning to “TATGTTTGTTGCACTTTGATTATTTGGGTGTTTCATTATCCGGAGTCACCTAGTGCAG”, the binding signal was 3350 fluorescence intensity (a.u.).

With “ACGAGAGCTTTATTGATTAGACCACAGAATTACACACTTACGGAGTCACCTAGTGCAG”, the binding signal is 3180 fluorescence intensity (a.u.).

Consider “GAGTTGACAGTTCGTCACTAGCTCGATCGCTAGTCGTCGCCGGAGTCACCTAGTGCAG”, for which the binding signal was 4740 fluorescence intensity (a.u.).

“TTAATTAGGAGCATTTCCATTGTCATTTGCTGATTCATATCGGAGTCACCTAGTGCAG”: the binding signal is 3920 fluorescence intensity (a.u.).

Regarding “ATAATTTCATGCACAAATTAACGGAGCAATATTGCAGTAACGGAGTCACCTAGTGCAG”, the binding signal was 9830 fluorescence intensity (a.u.).

Regarding “TTTTAATTTCTACCAACAATTAATTATGTTTGCCAGCAAACGGAGTCACCTAGTGCAG”, the binding signal is 10300 fluorescence intensity (a.u.).

For the sequence “ACGGACACAAATTTGATGTATTAAACATAGAATAATAAAACGGAGTCACCTAGTGCAG”, the binding signal was 3700 fluorescence intensity (a.u.).

For “ATATGCTAATTATGGATTAATTAAATTTAAAAGATTCGTCCGGAGTCACCTAGTGCAG”, the binding signal was 38800 fluorescence intensity (a.u.).

For “CATCAATCTTCACCTATAAATTCTTGGCCAGCTGAACACACGGAGTCACCTAGTGCAG”, the binding signal was 4960 fluorescence intensity (a.u.).

Consider “AACTTATTAAATGGCCATTAAGTTAGCAATCATCACAAACCGGAGTCACCTAGTGCAG”, for which the binding signal was 8430 fluorescence intensity (a.u.).

Consider “GTTAATTAGTACTCCGTGTAATCTTGTTTGACGGTCAGGACGGAGTCACCTAGTGCAG”, for which the binding signal was 33000 fluorescence intensity (a.u.).

Turning to “CTGACACCAACAGCCGACCTGATTGAGAGAGATCAATTAACGGAGTCACCTAGTGCAG”, the binding signal is 6500 fluorescence intensity (a.u.).

Consider “GTGTAATTGGTATGATATAGGCGGCATATTATATATATCACGGAGTCACCTAGTGCAG”, for which the binding signal is 21400 fluorescence intensity (a.u.).

As for “GAGACAAAGATTTAACAAATTTGCTCAACTACCGATCGAACGGAGTCACCTAGTGCAG”, the binding signal was 6550 fluorescence intensity (a.u.).

For the sequence “ATTCTGAATTTTAATTAATCTCATATTGGGTTCTTATATGCGGAGTCACCTAGTGCAG”, the binding signal was 5170 fluorescence intensity (a.u.).

With “TTAATGTTAAATTTAATGAAGCTAGTTTGGTGTTATAGATCGGAGTCACCTAGTGCAG”, the binding signal is 8140 fluorescence intensity (a.u.).

Regarding “ACTTTAATTAAAATCAAATTATTATAAGTTTAATTAATTTCGGAGTCACCTAGTGCAG”, the binding signal is 19400 fluorescence intensity (a.u.).

“CTGTTTAGTTAATTACTCATCAGTTAGTCTTGCATAATTTCGGAGTCACCTAGTGCAG”: the binding signal is 15200 fluorescence intensity (a.u.).

As for “AATTAATAATTACTTAAATGTTTTGAATAAGACGAATGGTCGGAGTCACCTAGTGCAG”, the binding signal is 16400 fluorescence intensity (a.u.).

With “TTAAATAATTGGTTTTACGATAAGTTTGTCAAACTACAATCGGAGTCACCTAGTGCAG”, the binding signal was 3770 fluorescence intensity (a.u.).

Take “TGTGACAAACAATGATTACCAAGCTTTTGGGGAAATATAGCGGAGTCACCTAGTGCAG”: the binding signal is 16900 fluorescence intensity (a.u.).

With “GCGAGATAAATCAACCAATTTCGTATGGATTTTGGTGCCTCGGAGTCACCTAGTGCAG”, the binding signal is 3990 fluorescence intensity (a.u.).

Turning to “AAGTCATAATAAGGTTAATTGGTTGTAGTATAGTTAAGGTCGGAGTCACCTAGTGCAG”, the binding signal was 10500 fluorescence intensity (a.u.).

Take “GCCAATCAGTGAGAAAGCAAGTGATTACAGATCTAGAGATCGGAGTCACCTAGTGCAG”: the binding signal was 6600 fluorescence intensity (a.u.).

As for “CACCTGTTAATCACAAACATTGCTTTGAAGCTCTTGACCGCGGAGTCACCTAGTGCAG”, the binding signal is 6210 fluorescence intensity (a.u.).

As for “ATTGCAATCAGTCAATATTATCCATAGTCTCTGATAGAGACGGAGTCACCTAGTGCAG”, the binding signal is 13900 fluorescence intensity (a.u.).

Regarding “GTTGTGGTGATTTGGGATCTAGATGACACACTATGACAAGCGGAGTCACCTAGTGCAG”, the binding signal is 5840 fluorescence intensity (a.u.).

As to “CAGGATAATTTCATCAAAATGCCTCTGGAATTTAGGAAAACGGAGTCACCTAGTGCAG”, the binding signal was 5110 fluorescence intensity (a.u.).

Consider “AATAAATAATTATTGCTAATGGGTGATGATGTGGCATGGTCGGAGTCACCTAGTGCAG”, for which the binding signal is 25200 fluorescence intensity (a.u.).

Regarding “AAGTGATTGCCCTGGCTCAGAGTTGAGTAAACAATCAGGCCGGAGTCACCTAGTGCAG”, the binding signal is 19900 fluorescence intensity (a.u.).

On to “CAATTCCAAAATTAATTAATGCAGTTCATGTACCCCTTTTCGGAGTCACCTAGTGCAG”, for which the binding signal was 10400 fluorescence intensity (a.u.).

With “CAGTAATAAACAAATCAAGTCAGAAGAGAAGGGAGGCATGCGGAGTCACCTAGTGCAG”, the binding signal was 4180 fluorescence intensity (a.u.).

In the case of “TTTAATTGGCGGTAGTAGAATTATACAAGGCGCGATGGAGCGGAGTCACCTAGTGCAG”, the binding signal is 27200 fluorescence intensity (a.u.).

Take “ACACAGCTAATTAGCTCTATGACTAAATGAATAAAATGACCGGAGTCACCTAGTGCAG”: the binding signal is 25800 fluorescence intensity (a.u.).

Regarding “AAGTCTAATTAATTCATAATTAGCACATGTTTACTGTAGCCGGAGTCACCTAGTGCAG”, the binding signal was 53800 fluorescence intensity (a.u.).

In the case of “TATAATCTCATGCACCTTAATTTGTTTCTTAGTGGCCCAGCGGAGTCACCTAGTGCAG”, the binding signal is 3240 fluorescence intensity (a.u.).

Take “GTCTTGTTTTAAAGATTTAATTGCAACGAATTTAATGGTGCGGAGTCACCTAGTGCAG”: the binding signal is 3480 fluorescence intensity (a.u.).

As for “ACTAACGATTGATCGCCATCAAGTATAGCTATAGCTAGCTCGGAGTCACCTAGTGCAG”, the binding signal is 11300 fluorescence intensity (a.u.).

For “ATTTAAATTAATCTTACTTTTGAATATGAGTAAATTACATCGGAGTCACCTAGTGCAG”, the binding signal was 13600 fluorescence intensity (a.u.).

The values above are taken from publication PMC7819943, “Rice protein-binding microarrays: a tool to detect cis-acting elements near promoter regions in rice”.
